# From US12551573B2, “Compositions and methods for the targeting of PCSK9” (Scribe Therapeutics Inc., priority 2022, dated 2026)
# Test system: HBEGF locus
# Format: cell-based, human
# [1] = repressor domain in dXR, repression of the HBEGF gene, abundance of domain in library after vs before diphtheria toxin selection
# [2] = high-throughput screen of dXR repression of the HBEGF gene, change in abundance of each domain in the library before and after diphtheria toxin selection
Molecule,Log2 (fold change) [1],Log2 (fold change) [2]
"DOMAIN_12985 (protein, listed as Phascolarctos cinereus) LQGSVTFQDVAVDFSWEEWGHLGPAQKELYREVMLENYGNLVCLGLAVSSPDVVCQLERGEGPWMPEGDVPGSSCAGWETK",3.7331,–
"DOMAIN_13004 (protein, listed as Macaca fascicularis) PQGLVTFGDVAVDFSQEEWEWLNPNQRNLYRKVMLENYKNLASLGLCVSKPDVISSLEQGKEPWTVKRKMTRAWCPDLKIV",3.2216,–
"DOMAIN_13022 (protein, listed as Phascolarctos cinereus) PLELVTFKDVAVDFSWEEWGHLEPSQKELYREVMLENYRNLVCLGLAISKPDVIFQLEQGEAPWMPEREGPKCRCADWKTR",3.0468,–
"DOMAIN_13029 (protein, listed as Myotis lucifugus) PQKSVTFEDVAVYFTPTEWDGLSPAQRALYRDVMLENYGNVASLGFPLIKPAVILQLEGGGELGGPSPLAAETGTDPPGLW",3.1708,–
"DOMAIN_13062 (protein, listed as Ursus maritimus) AKGLLTFGDVAIEFSQEEWECLSHTQRELYRDVILENYGHLLFLGVIVSKPDLVSLLEQRKEPWGEKRNKTRIHVGKNPFG",2.9752,–
"DOMAIN_13068 (protein, listed as Ailuropoda melanoleuca) QAEVTFEDVAVLFSREEWGRLGPAQRGLYRDVMLETYRNLVSLGAGPAGPKPGVITQLERGDEPWVLDTQGAKGKERLRVS",3.6132,–
"DOMAIN_13089 (protein, listed as Sapajus apella) PQKLVTFEDVAVYFTQAEWDGLSPAQRILYRDVMLENYGNVASLGFPLLKPAVISQLEGGGELGAPSPLAAGTGLHGLRTV",2.8761,–
"DOMAIN_13111 (protein, listed as Ailuropoda melanoleuca) QGLLTFGDVAIEFSQEEWRCLSHTQRELYRDVMLENYGHLLFLGLIVSKPDLVSLLEQRKEPWDVKRKKTVVFDPAVSSHG",2.6151,–
"DOMAIN_13125 (protein, listed as Macaca fascicularis) HQEMVTFEDVAVHFTKTEWTGLSPAQRALYRSVMLENFGNLTALGYPVPKPALISLLEGGDMAWGLEAQDDAPAERTKNIC",3.2101,–
"DOMAIN_13171 (protein, listed as Phascolarctos cinereus) SQIPLTFQDVAVDFTWEEWGLLEPSQKDMYWDVMLENYENFVSLGGIPVSFPDVISQMERIEAPWMTERGVLVSAFLDSPN",3.0052,–
"DOMAIN_13193 (protein, listed as Sapajus apella) KPGAVSFADVAVYFSPEEWGCLRPAQRALYRDVMRETYGHLGALGFPGPKPALISWMEQESEAWSSAAQDPEKGESLGGAR",3.8948,–
"DOMAIN_19229 (protein, listed as Enhydra lutris) VFQGSLSFEDVTVDFSREEWRLLDLAQKSLYRDVMLENYFNLISVGCQVPKQEVLFSLEQEEPRMLDGEISSHNCLGGDIG",–,4.0294
"DOMAIN_13282 (protein, listed as Phascolarctos cinereus) PQASVTFEDVAVYLTQEEWGHLEPAQRGLYRDVMLENYGNVVSLGFPVSKPDVILQLELRGEPWFLDMQGTEGREILRDCE",3.5504,–
"DOMAIN_13284 (protein, listed as Phascolarctos cinereus) QQGSVTFRDVAVDFTLEEWGHLDPFQKELYRDVMLENFRNLVCLGLTVSKPDVIHQLEQGEAPWIPEGESPRNSFAGCASD",3.0903,–
"DOMAIN_13293 (protein, listed as Myotis lucifugus) VKFADVAVYFSPEEWGCLRPAQRALYRDVMRENYGHLGALGCAGPKPALISWLERNTEDWEPAALDPQDCPRGLMVQRKWP",2.5884,–
"DOMAIN_13325 (protein, listed as Macaca fascicularis) FQGSVTFEDVAIAFSQQEWESLDSSQRGLYRDVMLENYRNLVSMAGHSLSKPHVIALLERWKEPKVTERKDGRRWCTDLQL",2.4051,–
"DOMAIN_13332 (protein, listed as Phascolarctos cinereus) PQESVTFRDVAVDFTWEEWGQLDPSQKELYREVMLENYGNLACLGLAVSKPDVILQLERGEIPWMSERKVPEGICPDWEAR",2.685,–
"DOMAIN_13333 (protein, listed as Phascolarctos cinereus) LRESVTFKDVAVDFTGEEWRRLDPAQRALYRDVMLENYENLVSLGLPVSKLDVISLLERGEAPWWLEGGGLQSPCSDALSQ",2.9787,–
"DOMAIN_13339 (protein, Puma concolor) QAEVTFEDVAVLFSREEWGRLGPTQRGLYRDVMLETYRNLVSLGAGRAGPKPGVITQLERGDEPWVLDAQGAKGKGRPRVS",3.2731,–

Molecule,Log2 (fold change) [1],Log2 (fold change) [2]
"DOMAIN_13346 (protein, listed as Oryctolagus cuniculus) SPESVAFEDVAVYFTKKEWASLLPAQRALYKEVMLENYGMVASLAPPPISKPALISQLEQGKEPWFTRPQGALNRRARRVV",2.9551,–
"DOMAIN_13363 (protein, Phyllostomus discolor) SRKPVSFADVAVYFSPEEWGCLRPVQRALYRDVMRETYGHLGALGFQDTKPALISWMEEEAELWGSDARDPELGECLSEDT",2.2178,–
"DOMAIN_13364 (protein, listed as Macaca fascicularis) KPRTVSFADVAVYFSREEWGCLRPAQRALYRDVMRETYGHLGALGFPGPKPALISWMEQETEAWSPAAQDPEKGERLGGAR",3.5606,–
"DOMAIN_19460 (protein, listed as Monodelphis domestica) FQASVTFKDVAVDFTWEEWRLLDPPQKELFWEVMLENYRNLVCLGLADSNKDVMMSKLESGEPHWIPTGGVLRSCWPGWES",–,3.995
"DOMAIN_13379 (protein, listed as Phascolarctos cinereus) CKESVTFKDVAVEFTWEEWVHLNSSQKTLYRDVMLENYRNLVSLGFAVSKPDVIYQLERKEASWIPGADIPRSSCPESKEF",3.2967,–
"DOMAIN_13387 (protein, listed as Sapajus apella) SQDLVTFKDVAIDFSQEEWQWMNPAQKRLYRSMMLENYQSLVSLGLCVSKPYVISLLEQGREPWEMTSEMTRSPFSDWESI",2.8731,–
"DOMAIN_13417 (protein, listed as Ailuropoda melanoleuca) QEPVTFEDVAVYFTQNQWAKLDPTQRALYREVMLENYANVASLGVAFPFPKPDLVSQLERGEVPWGPDPWEAEVLRGICPG",3.7056,–
"DOMAIN_13439 (protein, listed as Sapajus apella) FQGSISFKDVTVGFTQEEWQHLDPSQRALYRDVTLENYSNLVSVGYCVHKPEVIFRLEQGEEPWRLEEEFPSQSFPEVWTA",2.5091,–
"DOMAIN_13470 (protein, listed as Phascolarctos cinereus) PQEPVTFKDVAVDFSQEEWGLLGPAQRHLYRDVMLENYRNLVSLGLILAKPEVVCHLEQGGELWKPEHGVLCSGDGELWVR",3.7598,–
"DOMAIN_13486 (protein, Puma concolor) PQEPVTFEDVAVLFTPEEWMFLDSAQRSLYRDVMLENYRNLASVGDQLGKFSSFSHLEQGEEWWPTERRVFPGSCPEPSLP",3.4895,–
"DOMAIN_13501 (protein, listed as Macaca fascicularis) SQGSVTFRDVAIDFSQEEWKWLQPAQRDLYRCVMLENYGHLVSLGLSISKPDVVSLLEQGKEPWLGKRNVNRDLFSVSESS",2.8162,–
"DOMAIN_13509 (protein, listed as Phascolarctos cinereus) QQGSVTFQDVAVDFSWEEWGHLGPTQKELYREVMLENYGNLVCLGLAVSSPDVVCQLERGEGPWMPEGDAPGSSRAGSSKH",2.8053,–
"DOMAIN_19476 (protein, listed as Aotus trivirgatus) KPGAVSFADVAVYFSPEEWGCLRPAQRALYRDVMRETYGHLGALGFPGPKPALISWMEQESEAWSSAAQDPEKGENLGGAR",–,4.1343
"DOMAIN_13536 (protein, listed as Gorilla sp.) RPGAVSFADVAVYFSPEEWECLRPAQRALYRDVMRETFGHLGALGFSGPKPAFISWVEGEVEAWSPESQDPDGESSAAFSR",3.3269,–
"DOMAIN_13537 (protein, listed as Ailuropoda melanoleuca) LQGLLTFRDVAIEFSQEEWGCLSHTQRELYRDVMLENYGHLLFSGLIASKPDLVSCLEQKKEPWDLKRKKTVAIHPVYELK",3.3265,–
"DOMAIN_13562 (protein, listed as Phascolarctos cinereus) RQGSVTFQDVAVDFSWEEWGRLGPTQKELYREVMLENYRNLVCLGLEVSKPDVVYQLERGEAPWMPEGAVRRSCSQNWGAR",3.7608,–
"DOMAIN_13565 (protein, listed as Phascolarctos cinereus) SAASVTFRDVAVDFSREEWSRLDAAQRALYRDVMWETYENLVSTGIPVSRLDVISLLAKQEAQWTPEEVPGWTSPDSFSEE",2.994,–
"DOMAIN_13574 (protein, Puma concolor) SWASVVFEDVAVNFTPEEWALLNRGQRKLYRDVMLETCRNLSAVEKRKFHSSGDLTRMQEGLLRSPLVESVCERIEGDPCG",3.1114,–
"DOMAIN_13591 (protein, listed as Lynx canadensis) AHGLVMFKDVAIDVSQEEWECLNPTQRSLYKDVMLENYSNLVSLGLSISKPAVISSLEQGKEPWMVVREVTGEQCPDLVSR",3.215,–

# Like-named read-outs stand apart in the source and are kept apart here.
